# From PubChem BioAssay AID686978 (National Center for Advancing Translational Sciences (NCATS), 2013)
# Out of some 420,000 compounds screened, about 64,000 (15%) were called active. This list was built around the results that the source calls inconclusive (neither active nor inactive); the mix of calls is not that of the screen. The call rests on the fitted dose curve; in most records, active means well fitted inhibition curve with a large enough effect; inconclusive means small, poorly fitted or top-dose-only effect; inactive means flat fitted curve, though single readings scatter. No potency is given beside an inconclusive call; the fits are too rough.
# Assay: qHTS for Inhibitors of human tyrosyl-DNA phosphodiesterase 1 (TDP1): qHTS in cells in absence of CPT; further: nearly all actives have a fitted effect of over 55% in size
# Settings: DT40 Tdp1-/- hTDP1 cells, no CPT, ATP luminescence, 48 h; activity change, negative = growth inhibition: at 46.2 µM (top of the series) unless noted
# Procedure, shortened: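 Seeded 400 DT40-hTDP1 cells/well (vehicle DMSO, no 20 nM CPT); pinned compounds; ≥48 hr at 37 °C; CellTiter-Glo luminescence as viability measure.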
# On the % scale 0 is the no-effect control and ±100 the full control effect; potency means the concentration at half of the fitted maximal effect; tags describe the fitted curve by direction and shape.
SMILES,Potency,"activity change, negative = growth inhibition"
Cc1nc2ccccc2n1-c1nc(-c2ccco2)cc(C(F)(F)F)n1,active: 2.91 µM,
Cc1ccc2c(=O)cc(C(=O)NCCc3ccc(S(N)(=O)=O)cc3)oc2c1C,,inactive: -26.4%
COC(=O)c1nnn(-c2nc(N3CCOCC3)nc(N3CCOCC3)n2)c1C,"inconclusive [inhibitor, partial curve]",
COc1ccc(C2C(C#N)=C(N)OC3=C2C(=O)CC(C)(C)C3)cc1 (stereo not drawn),,inactive: -0.322%
CC1(c2ccc3ccccc3c2)NC(=O)N(CC(=O)NCC(C)(C)N2CCOCC2)C1=O (stereo not drawn),,inactive: -2.39%
Cc1ccc(Cc2c(-c3ccccc3)nc3ccc(Cl)cn23)cc1,"inconclusive [inhibitor, single point]",
CN(C(=O)COc1ccccc1C(=O)Nc1ccccc1)c1ccccc1,"inconclusive [inhibitor, single point]",
Cc1ccc(S(=O)(=O)N2CCN(c3nc(-c4cccs4)nc4ccccc34)CC2)c(C)c1,"inconclusive [inhibitor, single point]",
O=C(NCCCn1ccnc1)Nc1ccc(Cl)cc1,,inactive: -3.34%
O=C(Nc1ccnn1C1CCN(Cc2cc(Cl)ccc2O)CC1)C1CC1,,inactive: -23.2%
CN1CCN(c2nc3c(c(=O)n(C)c(=O)n3C)n2Cc2ccc(Cl)cc2)CC1,"inconclusive [inhibitor, single point]",
COc1cccc(C(=O)COc2ccc3ccc(=O)oc3c2)c1,"inconclusive [inhibitor, partial curve]",
CCOc1ccc(-c2cc(NC(=O)Nc3cccc(C(C)=O)c3)c(C(=O)OC)s2)cc1,,inactive: -10.2%
CCOc1ccc(S(=O)(=O)NCC(c2ccco2)S(=O)(=O)c2cccs2)cc1 (stereo not drawn),"inconclusive [inhibitor, partial curve]",
COC(=O)c1[nH]c2ccc(C)cc2c1NC(=O)CN1CCCc2ccccc21,"inconclusive [inhibitor, partial curve]",
COc1ccc(OC)c2[nH]c(=O)c(CCNC(=O)c3ccc(Br)o3)cc12,"inconclusive [inhibitor, partial curve]",
COC(=O)c1ccccc1COn1c(=O)c[n+]([O-])c2ccccc21,"inconclusive [inhibitor, single point]",
CCOC(=O)C1CCN(C(=O)CN(c2ccc(Oc3ccccc3)cc2)S(C)(=O)=O)CC1,"inconclusive [inhibitor, single point]",
CC1(C(=O)OCC(=O)N2c3ccccc3Sc3ccccc32)CC1(Cl)Cl (stereo not drawn),"inconclusive [inhibitor, single point]",
COc1ccc(OC)c(C2=Nn3c(nnc3-c3ccncc3)SC2)c1,"inconclusive [inhibitor, single point]",
O=C(COc1ccc([N+](=O)[O-])cc1)Nc1cccnc1,,inactive: 11.6%
CCOc1ccc(OCC(O)CN2CCN(S(=O)(=O)c3cccc(C(F)(F)F)c3)CC2)cc1 (stereo not drawn),"inconclusive [inhibitor, partial curve]",
CCn1c(SCC(=O)Nc2cc(OC)c(OC)c(OC)c2)nnc1-c1cccs1,active: 20.6 µM,
N#Cc1cc2ccc(N3CCOCC3)cc2cc1C#N,active: 11.6 µM,
CCNC(=O)C1(C)CCCN(CCOc2ccc(Cl)cc2)C1 (stereo not drawn),"inconclusive [inhibitor, single point]",

SMILES,Potency,"activity change, negative = growth inhibition"
Cc1ccccc1-c1ccc(CN2CCN(C)C(CCO)C2)cc1 (stereo not drawn),"inconclusive [inhibitor, single point]",
Cc1oc(-c2cccc(F)c2)nc1CN1CCCCC1CCc1ccccn1 (stereo not drawn),"inconclusive [inhibitor, partial curve]",
COCCN(CC(=O)Nc1cccc(C)c1C)C(=O)C1(c2ccc(Cl)cc2)CCC1,"inconclusive [inhibitor, partial curve]",
CCC1CCC(C(=O)NC(CCSC)C(=O)NCCN(CC(C)C)CC(C)C)CC1 (stereo not drawn),"inconclusive [inhibitor, partial curve]",
COc1ccc(OC)c(NC(=O)C2CCCN(S(=O)(=O)c3c(C)nn(C)c3C)C2)c1 (stereo not drawn),active: 20.6 µM,
COc1ccc(Nc2nc(NCc3ccco3)nc(N/N=C/c3ccc(O)cc3)n2)cc1,"inconclusive [inhibitor, single point]",
C=CCNc1scc(-c2ccccc2)[n+]1CC=C,,inactive: -27.5%
CCN(CC)S(=O)(=O)c1ccc(N2CCCCC2)c(NC(=O)/C=C/c2ccc(OC)c(OC)c2)c1,"inconclusive [inhibitor, partial curve, poor fit]",
CCOC(=O)c1c(C)[nH]c(C(=O)N/N=C\c2ccccc2Cl)c1C,active: 16.4 µM,
CCN(CC)C(=O)CSc1nc(N)c2c3c(sc2n1)CC(C)CC3 (stereo not drawn),active: 20.6 µM,
Cc1nc(-c2ccccc2)sc1C(=O)CSc1ccc(Cl)cc1,"inconclusive [inhibitor, single point]",
CN(Cc1c(F)cccc1Cl)C(=O)c1ccc2ccccc2n1,"inconclusive [inhibitor, partial curve, poor fit]",
C=CCn1c(SCC(=O)Nc2c(C)n(C)n(-c3ccccc3)c2=O)nc2scc(-c3ccccc3)c2c1=O,"inconclusive [inhibitor, partial curve, poor fit]",
COc1ccccc1-c1sc2cc3c(cc2c1C#CCO)OCO3,"inconclusive [inhibitor, single point]",
COc1cccc(N2CCN(C(=O)C(CCSC)NS(=O)(=O)c3ccc4c(c3)oc(=O)n4C)CC2)c1 (stereo not drawn),,inactive: -17.9%
CSc1ccc(C2=CC(=O)C[C@H](c3ccc(Cl)cc3)C2)cc1,"inconclusive [inhibitor, single point]",
OC(c1ccccc1)(c1nc(-c2ccc(F)c(Cl)c2)cs1)C(F)(F)F (stereo not drawn),active: 16.4 µM,
CCN(CC)S(=O)(=O)c1cccc(S(=O)(=O)c2cccc(S(=O)(=O)N(CC)CC)c2)c1,active: 18.4 µM,
OC1CN=C2C=CC=CN2C1 (stereo not drawn),,inactive: -1.04%
C/C=C/Cn1c(Br)nc2c1c(=O)n(C)c(=O)n2C,,inactive: -23.1%
NS(=O)(=O)c1ccc(CCNS(=O)(=O)c2ccc(Cl)cc2)cc1,,inactive: 1.27%
Cc1cccc(N/C(N)=N/c2nc(C(F)(F)F)cc(C(F)(F)F)n2)c1,,inactive: 4.77%
COC(C/C=C\[C@H](O)[C@@H](C)OCc1ccccc1)OC,,inactive: -2.97%
CCn1c2ccccc2c2cc(CN3CCN(C(=O)c4ccco4)CC3)ccc21,active: 23.1 µM,
CC(C)CCN1CC(=O)N2[C@@H](Cc3c([nH]c4ccccc34)C2(C)C)C1=O,"inconclusive [inhibitor, single point]",

SMILES,Potency,"activity change, negative = growth inhibition"
Oc1ccc(NCc2cccc(OCc3ccccc3)c2)cc1,active: 20.6 µM,
S=c1c2c(nc3nc[nH]n13)CCC2,active: 20.6 µM,
O=S1(=O)c2c(Oc3cccc4ccccc34)cccc2OC(COCc2ccccc2)CN1C1CCCC1 (stereo not drawn),active: 6.51 µM,
Cc1ccc(S(=O)(=O)N2[C@@H](c3ccc(Cl)cc3)C(C(=O)O)=CC[C@H]2c2cccc(Cl)c2)cc1,,inactive: 3.07%
CCOC(=O)c1nnn2c1nc(SCC(C)=O)c1ccccc12,"inconclusive [inhibitor, single point]",
Cn1cc([N+](=O)[O-])c(C(=O)Nc2ccc3nc(-c4ccccc4)[nH]c3c2)n1,active: 18.4 µM,
COC1(OC)N=C(N)C2(C#N)C(c3ccc(C)cc3)C12C#N (stereo not drawn),,inactive: -21.9%
CCN(CC)c1nn2c(=O)c(C(=O)NCCc3ccccc3)cnc2s1,"inconclusive [inhibitor, partial curve]",
COc1ccc(-c2cn(CCC(=O)O)c(C)n2)cc1,,inactive: -0.41%
COC(=O)c1ccc(Oc2coc3cc(OCc4cnn(-c5ccccc5)c4)ccc3c2=O)cc1,"inconclusive [inhibitor, partial curve]",
FC(F)(F)c1ccnc(Sc2n[nH]c(C(F)(F)F)n2)c1,"inconclusive [inhibitor, single point]",
Cc1ccccc1-c1nc(CS(=O)(=O)CC(=O)N(C)C2CCCCC2)c(C)o1,"inconclusive [inhibitor, partial curve, poor fit]",
O=C(Nc1ccc(CN2CCOCC2)cc1)c1ccc(Cl)cc1Cl,,inactive: -11%
Cc1cc2c(cc1S(=O)(=O)NCc1ccccc1Cl)OCCN2C,"inconclusive [inhibitor, single point]",
COc1cc(/C=C/C(=O)Nc2ccc(S(=O)(=O)Nc3ncccn3)cc2)ccc1OCC#N,"inconclusive [inhibitor, single point]",
O=C1CN(c2nc(-c3cccnc3)nc3sc4c(c23)CCCC4)CCN1,"inconclusive [inhibitor, partial curve]",
CCOC(=O)C1=CN(Cc2cccc(F)c2)S(=O)(=O)N(CC)C1c1ccc(C(F)(F)F)cc1 (stereo not drawn),active: 23.1 µM,
O=C(NNC(=O)c1ccncc1)Nc1cc(Cl)ccc1Cl,,inactive: -12.9%
O=C(c1cnn2ccccc12)N1CCCc2ccccc21,"inconclusive [inhibitor, single point]",
CCN(CC(=O)NCc1cccs1)S(=O)(=O)c1cccc(C(C)=O)c1,,inactive: -14.4%
CC(C)NS(=O)(=O)c1ccc2c(c1)NCC2,,inactive: -1.16%
CC(Nc1nc(N2CCN(S(C)(=O)=O)CC2)nc2ccccc12)c1ccccc1 (stereo not drawn),"inconclusive [inhibitor, partial curve]",
c1ccc2c(N3CCOCC3)nc(N3CCOCC3)nc2c1,"inconclusive [inhibitor, partial curve]",
